Out of some 310,000 compounds screened, about 14,000 (4.5%) showed an effect of 50% or more. The effect is printed as a negative number. The list shows a part of the results.
target: human ether-à-go-go-related gene (hERG) potassium channel (human, UniProt Q12809); assay: primary screen, population patch clamp on CHO cells stably expressing hERG
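Further: peak tail current of the secondary pulse compared with the same well before compound.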

Chain of human ether-à-go-go-related gene (hERG) potassium channel (Q12809 whole entry, looked up): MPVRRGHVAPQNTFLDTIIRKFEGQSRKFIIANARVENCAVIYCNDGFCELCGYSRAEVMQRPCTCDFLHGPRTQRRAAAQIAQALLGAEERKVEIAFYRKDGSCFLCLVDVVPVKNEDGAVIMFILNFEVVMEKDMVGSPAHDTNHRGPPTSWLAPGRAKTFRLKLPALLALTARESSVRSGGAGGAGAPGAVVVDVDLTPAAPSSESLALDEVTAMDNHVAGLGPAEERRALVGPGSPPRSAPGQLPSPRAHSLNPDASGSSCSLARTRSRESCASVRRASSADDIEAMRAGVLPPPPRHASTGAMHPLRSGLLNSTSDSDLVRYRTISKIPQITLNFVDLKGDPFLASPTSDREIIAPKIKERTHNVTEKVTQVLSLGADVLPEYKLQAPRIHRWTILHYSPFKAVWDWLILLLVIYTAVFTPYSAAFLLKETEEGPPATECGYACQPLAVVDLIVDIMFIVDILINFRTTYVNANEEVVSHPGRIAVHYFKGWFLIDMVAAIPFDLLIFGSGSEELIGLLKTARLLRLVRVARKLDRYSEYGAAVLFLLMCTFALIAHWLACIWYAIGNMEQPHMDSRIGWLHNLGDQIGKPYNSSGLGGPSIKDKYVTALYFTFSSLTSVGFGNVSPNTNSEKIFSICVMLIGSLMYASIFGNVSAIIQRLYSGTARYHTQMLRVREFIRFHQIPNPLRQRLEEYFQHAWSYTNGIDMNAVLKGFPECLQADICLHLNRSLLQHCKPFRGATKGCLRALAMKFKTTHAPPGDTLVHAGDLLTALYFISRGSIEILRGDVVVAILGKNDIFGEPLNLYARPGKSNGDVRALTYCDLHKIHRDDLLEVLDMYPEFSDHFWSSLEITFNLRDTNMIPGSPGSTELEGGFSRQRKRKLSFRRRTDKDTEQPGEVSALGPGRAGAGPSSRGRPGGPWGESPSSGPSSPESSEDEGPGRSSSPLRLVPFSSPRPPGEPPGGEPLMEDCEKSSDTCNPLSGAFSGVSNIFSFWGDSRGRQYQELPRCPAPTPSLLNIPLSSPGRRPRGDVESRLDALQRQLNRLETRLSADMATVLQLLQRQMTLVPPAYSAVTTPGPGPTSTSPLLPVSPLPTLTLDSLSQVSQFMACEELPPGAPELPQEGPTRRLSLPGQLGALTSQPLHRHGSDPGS

Compound | hERG current change (%, negative = inhibition) at 10uM [%]
CNc1nn(-c2cccc(Cl)c2)nc1N | -5.64
CN(C)c1ccc(/C(=N\O)c2ccccc2)cc1 | -9.94
COc1ccc(C(=O)n2nc(-c3ccc(OC)cc3)nc2N)cc1 | -3.32
Cc1ccc(C)c(S(=O)(=O)N2CCN(C(=O)c3cccn3C)CC2)c1 | -1.44
Cc1ccc2nc(-c3ccccc3)c(CC(=O)O)c(C(=O)O)c2c1 | 18.2
O=C(O)CCN1C(=O)C2C3C=CC(C2C1=O)C1C(=O)N(CCC(=O)O)C(=O)C31 (stereo not drawn) | 1.36
CC(=O)C1=C(O)C(=O)N(c2ccc(Br)cc2)C1c1ccc([N+](=O)[O-])cc1 (stereo not drawn) | 7.07
Cc1ccc(NC(=O)Cn2c([N+](=O)[O-])cnc2C)cc1Cl | 10.4
Cn1c(SCC(=O)Nc2ncc(C(F)(F)F)cc2Cl)nnc1-c1ccc(Cl)cc1 | -30.8
CCS(=O)(=O)N1CCCC(C(=O)Oc2ccc(Br)cc2)C1 (stereo not drawn) | -20.6
CC1=CC(C)(C)Nc2ccc(OC(=O)CN3C(=O)CCC3=O)cc21 | 2.04
CCOc1ccc(Br)cc1CN(CC)CC.Cl | -27.4
COC(=O)c1ccc(CN2CCC(Oc3ccc(C(=O)N4CCCCC4)cc3)CC2)cc1 | -51.7
CC(=O)c1c(C)[nH]c(C(=O)NCc2ccc(C)cc2)c1C | 10.1
CCn1c(SCc2nc3ccccc3c(=O)[nH]2)nc2ccccc2c1=O | -5.61
COc1ccccc1NS(=O)(=O)c1cccc(NC(=O)CCNC(=O)c2ccccc2OC)c1 | -33.1
CCOc1ccc(NC(=O)NCCN2CCN(c3ccccc3F)CC2)cc1 | -62.3
C=CCC1(Cl)C(=O)C(Cl)=C(N2CCOCC2)C1(OC)OC (stereo not drawn) | 15.1
COc1cccc(N=Cc2c(O)n(Cc3ccco3)c(=O)[nH]c2=O)c1 | 26.6

Compound | hERG current change (%, negative = inhibition) at 10uM [%]
CCOC(=O)CNc1ncc(C(F)(F)F)cc1Cl | 3.07
COc1ccc(C2=NO[C@@H]3C(=O)N(C4CCCCC4)C(=O)[C@H]23)cc1OC | -17.7
CC(C)(C)c1ccc(NC(=O)c2ccc3c(c2)S(=O)(=O)c2ccccc2C3=O)cc1 | 25.5
C/C(CC(=O)Nc1ccc(Cl)cn1)=N\NC(=O)Cc1cccs1 | 4.63
COc1ccc(C)cc1N(CC(=O)N1CCCCCC1)S(=O)(=O)c1ccccc1 | -23.9
COC(=O)c1cc(CNC(=O)C(C)NS(=O)(=O)c2ccc(C)c(C)c2)ccc1OC (stereo not drawn) | 21.6
CCCN(CCC)CC(O)CN1C(=O)NC(C)(C)C1=O (stereo not drawn) | 26.3
COc1ccccc1NC(=S)NCCSc1ccc(Cl)cc1 | -0.291
COc1cc(C)cc(C(=O)O)c1C1=C(O)c2cccc(O)c2C(=O)C1=O | 3.59
CC1=CC(C)C2C(=O)N(O)C(=O)C2C1 (stereo not drawn) | 8.36
CC(=O)NCCC(=O)N1CCc2c([nH]c3ccccc23)C1c1cccc(Cl)c1 (stereo not drawn) | -24.2
O=C(CN1CCCc2ccccc21)NCCc1ccc(F)cc1 | -17.2
COc1ccc(S(=O)(=O)N2CCCC(C(=O)NCc3ccncc3)C2)cc1Cl (stereo not drawn) | -34.5
Cc1ccc(C(=O)N2CCN(C(=O)C3CCCO3)CC2)cc1 (stereo not drawn) | -6.48
O=C(COC(=O)C1(c2ccccc2F)CCCC1)N1CCOCC1 | 12.6
CCOCCCNC(=O)c1ccc2c(c1)ncn2-c1ccc(CC)cc1 | -43.8
CSCCC(NC(=O)c1ccccc1)C(=O)NCCc1ccccc1 (stereo not drawn) | -16.1
O=C1CC(c2cccc(F)c2)C2=C(CCCC2=O)N1 (stereo not drawn) | 4.51
COc1cc2nc(CN(C)Cc3ccc(Cl)cc3)[nH]c(=O)c2cc1OC | 13.6

Compound | hERG current change (%, negative = inhibition) at 10uM [%]
O=C(NCc1nnc(SCC(=O)N2CCC(Cc3ccccc3)CC2)o1)c1ccccc1F | -23.8
CC(C)C(Sc1nc(-c2ccccc2)cc(-c2ccccc2)c1C#N)C(=O)O (stereo not drawn) | 15.8
CN(CCOc1ccc(Br)cc1)C(=O)CNC(=O)c1ccc2ccccc2c1 | -1.47
CCOc1ccc(/C=N/Nc2ccc(Cl)nn2)c(O)c1 | 20.1
COCCNC(=O)c1nn(-c2cc(OC)cc(OC)c2)c(=O)c2ccccc12 | 2.23
O=C(c1ccccn1)N(c1ccccc1)C1(C(=O)NC2CCCCC2)CCCCC1 | -5.99
COc1cc2ncnc(NCCc3ccccc3)c2cc1OC | -15.5
CCOC(=O)C1=C(CSc2nccn2C)NC(=O)NC1c1ccc(OC)cc1 (stereo not drawn) | -9.09
CC(=O)N1CCN(C(=O)CSc2nnc(C)n2-c2ccccc2)CC1 | 12.4
O=C(CN1C(=O)NC2(CCc3ccccc32)C1=O)Nc1cccc(F)c1 (stereo not drawn) | -6.96
COc1ccc(NCc2nnc(-c3ccccc3)o2)cc1 | 1.25
CC(C)c1ccc(NNC(=O)C2CCC2)cc1 | 3.84
COCCNC(=O)C(C)Oc1ccc(Cl)cc1Cl (stereo not drawn) | -6.13
COc1ccc(C(CNC(=O)COc2ccc(C)c(C)c2)N2CCCCC2)cc1 (stereo not drawn) | -38.6
N=C1C(c2ccccc2)=C(O)CN1CCCO | 14.5
COc1ccc2cc(-c3cc(C(=O)O)c4ccccc4n3)ccc2c1 | 4.97
O=C1[C@H]2[C@H](ON3CCCC[C@H]23)C(=O)N1c1cccc(C(F)(F)F)c1 | 12.3
N#CC(C(=O)C1CCCCC1)c1nc2ccccc2[nH]1 (stereo not drawn) | -5.05
Cc1c(C)c2ccc(OCC(=O)N3CCN(C(=O)C4COc5ccccc5O4)CC3)cc2oc1=O (stereo not drawn) | -60.9
